Measured values: US12037378B2, “Variant CD58 domains and uses thereof” (NOVARTIS AG, priority 2019, dated 2024)

How the values were obtained:
Nalm6 target cells [1] = assay: Re-directed T cell cytotoxicity by CD19 TBMs, Nalm6 target cells; assay type: cell-based; details: human pan T cells, E:T 3:1 or 5:1, 24-96 hr
Experimental: (§1) In one study, the TBMs were compared across multiple donor effector cells. Briefly, huCD19-expressing Nalm6 or Karpas422 target cells were engineered to overexpress firefly luciferase. Cells were harvested and resuspended in RPMI medium (Invitrogen #11875-093) with 10% FBS. 2,500 target cells per well were plated in a flat-bottom 384-well plate. Human pan T effector cells were isolated via MACS negative selection (Miltenyi Biotec #130-096-535) from two donors from cryopreserved PBMC (Cellular Technologies Limited #CTL-UP1) then added to the plate to obtain a final E:T ratio of 3:1 or 5:1. Co-cultured cells were incubated with a serial dilution of all constructs and controls. For normalization, average maximum luminescence refers to target cells co-incubated with effector cells, but without any test construct. […] Luminescence was measured on an Envision plate reader after a 10 minute incubation. Percent specific lysis was calculated using the following equation: Specific lysis (%)=(1−(sample luminescence/average maximum luminescence))*100
(§2) In one study, the TBMs were compared across multiple donor effector cells. […] For normalization, average maximum luminescence refers to target cells co-incubated with effector cells, but without any test construct. […] Luminescence was measured on an Envision plate reader after a 10 minute incubation. […]

Karpas422 target cells [2] = assay: Re-directed T cell cytotoxicity by CD19 TBMs, Karpas422 target cells; assay type: cell-based; details: human pan T cells, E:T 3:1 or 5:1, 24-96 hr
Experimental: as §1, §2

Nalm6 target cells [3] = assay: RTCC of NEG258-based TBMs with CD2 or lysozyme binding arm and blinatumomab, Nalm6; assay type: cell-based; details: human pan T cells, E:T 3:1, 1:1, 1:3 or 1:5, 48-96 hr
Experimental: (§3) The purified TBMs were compared across multiple donor effector cells. Briefly, huCD19-expressing Nalm6 and Karpas422 target cells were engineered to overexpress firefly luciferase. Cells were harvested and resuspendend in RPMI medium (Invitrogen #11875-093) with 10% FBS. 5,000 target cells per well were plated in a flat-bottom 384-well plate. Human pan T effector cells were isolated via negative selection (Stemcell Technologies #17951) from two donors from cryopreserved PBMCs that were separated from a leukopak (Hemacare #PB001F-1) by Ficoll density gradient centrifugation. Purified T cells were then added to the plate to obtain a final E:T ratio of 3:1, 1:1, 1:3 or 1:5. Co-cultured cells were incubated with serial dilutions of all constructs and controls. For normalization, average maximum luminescence refers to target cells co-incubated with effector cells, but without any test construct. After an incubation of 48, 72 or 96 hr at 37° C., 5% CO2, OneGlo luciferase substrate (Promega #E6120) was added to the plate. Luminescence was measured on an Envision plate reader after a 10 minute incubation. Percent specific lysis was calculated using the following equation: Specific lysis (%)=(1−(sample luminescence/average maximum luminescence))*100

Karpas422 target cells [4] = assay: RTCC of NEG258-based TBMs with CD2 or lysozyme binding arm and blinatumomab, Karpas422; assay type: cell-based; details: human pan T cells, E:T 3:1, 1:1, 1:3 or 1:5, 48-96 hr
Experimental: as §3

human CD19 = target: T1, human CD19 (Homo sapiens, UniProt P15391); assay: Binding to 300.19 cells overexpressing human CD19 (FACS)
T1 construct: expressed in transfected cells; host or cells: mouse cell line 300.19
T1 sequence (P15391 20-556): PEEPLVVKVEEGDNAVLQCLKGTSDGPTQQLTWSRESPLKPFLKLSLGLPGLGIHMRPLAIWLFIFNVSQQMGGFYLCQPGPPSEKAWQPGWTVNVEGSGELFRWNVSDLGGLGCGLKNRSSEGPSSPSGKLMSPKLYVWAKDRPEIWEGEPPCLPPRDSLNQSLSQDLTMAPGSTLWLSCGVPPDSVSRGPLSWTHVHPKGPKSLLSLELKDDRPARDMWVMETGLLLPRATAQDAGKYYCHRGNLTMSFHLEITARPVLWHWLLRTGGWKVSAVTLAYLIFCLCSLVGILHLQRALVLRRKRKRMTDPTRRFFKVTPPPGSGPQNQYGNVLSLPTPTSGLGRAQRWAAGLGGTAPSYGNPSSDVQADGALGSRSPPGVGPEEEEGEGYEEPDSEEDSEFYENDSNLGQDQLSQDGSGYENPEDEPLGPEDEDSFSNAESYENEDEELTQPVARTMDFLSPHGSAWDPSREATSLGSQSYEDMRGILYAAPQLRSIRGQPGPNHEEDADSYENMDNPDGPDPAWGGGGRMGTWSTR
Experimental: (§4) The mouse cell line 300.19 was engineered to overexpress either human CD19 or cyno CD19. Cells were cultured in RPMI medium (Invitrogen #11875-093) with 10% FBS and 2-mercaptoethanol. Cells were harvested and resuspended in FACS buffer (PBS containing 1% FBS). 50,000 cells per well were plated in a V-bottom 96-well plate. Each cell line was incubated with serial dilutions of TBMs of Example 1 for one hour on ice. Cells were centrifuged for 4 min at 400×g and washed with FACS buffer. This was repeated twice, and then the cells were incubated with Alexa-647 labeled anti-human Fc secondary antibody (Jackson Immuno #109-605-098) for 30 min on ice. The cells were washed twice, then resuspended in 100 μL of FACS buffer. FACS data was collected on a Beckman Coulter Cytoflex and analysis was performed using CytExpert v2.3.

cyno CD19 = assay: Binding to 300.19 cells overexpressing cyno CD19 (FACS)
Experimental: as §4

B1: NEG258-based TBM: trispecific with NEG258-based CD19 binding arm, CD3hi anti-CD3 scFv and IgV domain of CD58 (CD58-6) (antibody)
heavy: QVQLVQSGAEVKKPGASVKVSCKASGYTFTTYWIQWVRQAPGQRLEWMGAVYPGDADTRYTQKFQGRVTLTADRSASTAYMELSSLRSEDTAVYYCGRDAGLEYYALDYWGQGTLVTVSSASTKGPSVFPLAPSSKSTSGGTAALGCLVKDYFPEPVTVSWNSGALTSGVHTFPAVLQSSGLYSLSSVVTVPSSSLGTQTYICNVNHKPSNTKVDKRVEPKSCGGGGSGGGGSEVQLVESGGGLVQPGGSLKLSCAASGFTFNTYAMNWVRQASGKGLEWVGRIRSKYNNYATYYADSVKDRFTISRDDSKSTLYLQMNSLKTEDTAVYYCVRHGNFGNSYVSWFAYWGQGTLVTVSSGGGGSGGGGSGGGGSGGGGSQAVVTQEPSLTVSPGGTVTLTCRSSTGAVTTSNYANWVQQKPGQAPRGLIGGTNKRAPWTPARFSGSLLGDKAALTLSGAQPEDEAEYFCALWYSNLWVFGGGTKLTVLGGGGSDKTHTCPPCPAPELLGGPSVFLFPPKPKDTLMISRTPEVTCVVVAVSHEDPEVKFNWYVDGVEVHNAKTKPREEQYASTYRVVSVLTVLHQDWLNGKEYKCKVSNKALAAPIEKTISKAKGQPREPQVCTLPPSREEMTKNQVSLSCAVKGFYPSDIAVEWESNGQPENNYKTTPPVLDSDGSFFLVSKLTVDKSRWQQGNVFSCSVMHEALHNHYTQKSLSLSPGK
light: EIVMTQSPATLSVSPGERATLSCRASQDVGTAVAWYQQKPGQAPRLLIYWASTRHTGIPARFSGSGSGTEFTLTISSLQSEDFAVYFCQQYANFPLYTFGQGTKLEIKRTVAAPSVFIFPPSDEQLKSGTASVVCLLNNFYPREAKVQWKVDNALQSGNSQESVTEQDSKDSTYSLSSTLTLSKADYEKHKVYACEVTHQGLSSPVTKSFNRGEC
chain: SQQIYGVVYGNVTFHVPSNVPLKEVLWKKQKDKVAELENSEFRAFSSFKNRVYLDTVSGSLTIYNLTSSDEDEYEMESPNITDTMKFFLYVLESGGGGSDKTHTCPPCPAPELLGGPSVFLFPPKPKDTLMISRTPEVTCVVVAVSHEDPEVKFNWYVDGVEVHNAKTKPREEQYASTYRVVSVLTVLHQDWLNGKEYKCKVSNKALAAPIEKTISKAKGQPREPQVYTLPPCREEMTKNQVSLWCLVKGFYPSDIAVEWESNGQPENNYKTTPPVLDSDGSFFLYSKLTVDKSRWQQGNVFSCSVMHEALHNRYTQKSLSLSPGK
With B1 the “cytotoxic activity against Nalm6 target cells” value (Nalm6 target cells [1]) was “more potent than the NEG218-based TBM”, the “cytotoxic activity against Karpas422 cells” value (Karpas422 target cells [2]) was “more potent than the NEG218-based TBM” and the “cytotoxic activity against Nalm6 target cells” value (Nalm6 target cells [3]) was “superior cytotoxic activity”. For the same molecule, the “cytotoxic activity against Karpas422 cells” value (Karpas422 target cells [4]) was “superior cytotoxic activity”, the “binding to 300.19 cells overexpressing human CD19” value (human CD19) was “bind to cell lines engineered to overexpress both human and cyno CD19” and the “binding to 300.19 cells overexpressing cyno CD19” value (cyno CD19) was “bind to cell lines engineered to overexpress both human and cyno CD19”.
